{"source": "PubChem BioAssay AID624417", "about": "(National Center for Advancing Translational Sciences (NCATS), 2012)", "note": "The whole screen tested about 410,000 compounds, of which about 6,400 (1.6%) were called active. The inconclusive results got no clear call from the source; some entries with a clear call stand among them for comparison. Calls come from the whole dose curve; as a rule, active = well fitted inhibition curve with a large enough effect; inconclusive = small, poorly fitted or top-dose-only effect; inactive = no such curve, though single readings can be large or run the other way. Potencies of inconclusive entries are left out as doubtful fits. % is set by controls: 0 for no effect and ±100 for the full control effect; potency is the fitted concentration of half-maximal effect; tags give direction and shape of the fitted curve."}
{"target": "Glucagon-like peptide 1 receptor (Homo sapiens) (UniProt P43220)", "sequence (P43220 whole entry, looked up)": "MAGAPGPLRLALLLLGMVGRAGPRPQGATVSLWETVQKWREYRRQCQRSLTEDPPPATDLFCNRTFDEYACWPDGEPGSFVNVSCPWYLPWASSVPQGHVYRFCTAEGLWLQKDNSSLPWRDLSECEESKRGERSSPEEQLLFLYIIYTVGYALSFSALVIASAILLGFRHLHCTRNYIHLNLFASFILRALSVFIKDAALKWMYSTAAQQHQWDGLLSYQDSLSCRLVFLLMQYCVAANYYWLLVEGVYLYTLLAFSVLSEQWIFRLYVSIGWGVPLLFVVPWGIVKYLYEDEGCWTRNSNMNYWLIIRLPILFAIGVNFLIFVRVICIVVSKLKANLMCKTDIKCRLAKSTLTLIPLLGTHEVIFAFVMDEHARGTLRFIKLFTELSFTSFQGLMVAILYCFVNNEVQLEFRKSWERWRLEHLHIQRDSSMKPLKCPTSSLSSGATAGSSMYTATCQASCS", "assay": "qHTS of GLP-1 Receptor Inverse Agonists (Inhibition Mode); note: nearly all actives have a fitted effect of over 55% in size", "settings": "HEK293 GLP-1R CRE-luciferase, luminescence, 24 h, GLP-1R form is constitutively active; activity change, negative = inhibition: at 38.3 µM (top of the series) unless noted", "procedure,_shortened": "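Inverse agonism was detected as reduced cAMP-driven luciferase luminescence after 24 h compound treatment. The cells were HEK293 clones expressing constitutively active human GLP-1R with the reporter. Reporter-only and GPR119 cell lines served as counterscreen controls.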"}
{"compound": "CCc1cccc(NC(=O)CN(c2ccc(C)c(C)c2)S(=O)(=O)c2ccsc2C(=O)OC)c1", "activity change, negative = inhibition": "inactive: 8.25%"}
{"compound": "O=C1CCC(=O)N(O)CCCCCNC(=O)CCC(=O)N(O)CCCCCNC(=O)CCC(=O)N(O)CCCCCN1", "Potency": "inconclusive [inhibitor, single point]"}
{"compound": "CCOC(=O)c1ccc(NC(=O)CCOc2ccccc2)cc1", "Potency": "inconclusive [inhibitor, single point]"}
{"compound": "c1ccc(-c2csc(Nc3cccnc3)n2)cc1", "Potency": "inconclusive [inhibitor, partial curve, poor fit]"}
{"compound": "COc1ccc(C(=O)NCC(c2ccco2)S(=O)(=O)c2ccc(F)cc2)cc1", "note": "(centres undefined)", "activity change, negative = inhibition": "inactive: -4.64%"}
{"compound": "CC(C)(C)c1cc(C(=O)NN)n(Cc2ccc(F)cc2)n1", "Potency": "inconclusive [inhibitor, single point]"}
{"compound": "CCC(CO)Oc1cc(NCc2ccc(C(F)(F)F)cc2)c2ncn(C(C)C)c2c1", "note": "(centres undefined)", "Potency": "inconclusive [inhibitor, single point]"}
{"compound": "CCOC(=O)[C@]12CCCC=C1N(CCC1=CCCCC1)C(=O)[C@H](CC(=O)NCCc1ccccc1OC)C2", "Potency": "inconclusive [inhibitor, partial curve, poor fit]"}
{"compound": "Cc1ccc(C)c(Cn2nnc3c(=O)[nH]c(C4CCCN(C(=O)c5cccs5)C4)nc32)c1", "note": "(centres undefined)", "Potency": "inconclusive [inhibitor, single point]"}
{"compound": "COc1cc2[nH]c(=O)n(CCCC(=O)N3CC=C(c4ccccc4)CC3)c(=O)c2cc1OC", "activity change, negative = inhibition": "inactive: 16.8%"}
{"compound": "CC(C)OCCCNc1ncnc2sc3c(c12)CCCC3", "Potency": "inconclusive [inhibitor, single point]"}
{"compound": "C/C(=N\\NC(=S)NCCc1ccccc1)c1ccc(C#N)cc1", "activity change, negative = inhibition": "inactive: 0.88%"}
{"compound": "CC(NC(=O)CSC(=S)N(C)C)C12CC3CC(CC(C3)C1)C2", "note": "(centres undefined)", "Potency": "inconclusive [inhibitor, single point]"}
{"compound": "Cc1cccc(N=C2NC(=O)/C(=C/c3cccnc3)S2)c1C", "Potency": "inconclusive [inhibitor, single point]"}
{"compound": "Cn1c(=O)c(C(=O)Nc2ccccn2)c(O)c2ccccc21", "Potency": "inconclusive [inhibitor, partial curve, poor fit]"}
{"compound": "Cc1cc(C(C)(C)C)oc1C(=O)N(CC(=O)NC1CCCC1)c1c(C)cccc1C", "Potency": "inconclusive [inhibitor, partial curve, poor fit]"}
{"compound": "CC(C)C1NC(C(=O)O)Cc2c1[nH]c1ccccc21", "note": "(centres undefined)", "activity change, negative = inhibition": "inactive: -3.34%"}
{"compound": "CCc1nc2ccc(C(=O)NCCOc3ccc(OC)cc3)cn2c1N(C)Cc1ccc(N(C)C)cc1", "Potency": "inconclusive [inhibitor, single point]"}
{"compound": "Cc1ccc(S(=O)(=O)N2CCCCC2)cc1C(=O)NCCC1=CCCCC1", "Potency": "inconclusive [inhibitor, partial curve, poor fit]"}
{"compound": "COc1ccc(C(NC(=O)CN2C(=O)NC3(CCc4ccccc43)C2=O)c2ccc(OC)cc2)cc1", "note": "(centres undefined)", "Potency": "inconclusive [inhibitor, partial curve, poor fit]"}
{"compound": "O=C(CCC1N=C2c3ccccc3N=C(SCc3ccc(F)cc3)N2C1=O)NCCc1ccccc1", "note": "(centres undefined)", "Potency": "inconclusive [inhibitor, partial curve, poor fit]"}
{"compound": "COc1ccc(-c2noc(N3CCC(C(=O)Nc4cccc(OC)c4)CC3)n2)cc1", "Potency": "inconclusive [inhibitor, single point]"}
{"compound": "CCN(CC)CCNC(=O)/C(=C/c1cn(CC)c2ccccc12)NC(=O)c1cc(OC)c(OC)c(OC)c1", "Potency": "inconclusive [inhibitor, single point]"}
{"compound": "CCOC(=O)C1CCN(c2cc(C)nc3ccc(OC)cc23)CC1", "Potency": "inconclusive [inhibitor, single point]"}
{"compound": "CC12Cc3ccc4ccccc4c3C=C1C[N+](C)(C)C2", "note": "(centres undefined)", "Potency": "inconclusive [inhibitor, full curve]"}
{"compound": "Cc1cc(C)nc(NC(=O)CCC2CCCC2)c1", "Potency": "inconclusive [inhibitor, single point]"}
{"compound": "Cc1cccc(N2CCN(C(=O)COc3ccc4c(c3)CCC4)CC2C)c1", "note": "(centres undefined)", "Potency": "inconclusive [inhibitor, partial curve, poor fit]"}
{"compound": "O=C(CN1C(=O)CSc2ccc(S(=O)(=O)N3CCOCC3)cc21)NCCCN1CCc2ccccc2C1", "Potency": "inconclusive [inhibitor, single point]"}
{"compound": "CCCCN(CC)C(=O)c1nn(C)c2c1CSc1ccccc1-2", "activity change, negative = inhibition": "inactive: -20.6%"}
{"compound": "CC1CCN(c2nc(CN3CCCCC3)nc3scc(-c4ccccc4)c23)CC1", "Potency": "inconclusive [inhibitor, single point]"}
{"compound": "COc1ccc(CN(C)Cc2c(O)ccc3ccccc23)cc1", "Potency": "inconclusive [inhibitor, partial curve]"}
{"compound": "Cc1oc(-c2cccc(Cl)c2)nc1CS(=O)(=O)CC(=O)NC(C)CCc1ccccc1", "note": "(centres undefined)", "Potency": "inconclusive [inhibitor, single point]"}
{"compound": "Cc1csc(=O)n1CC(=O)Nc1ccc(C(C)C)cc1", "Potency": "inconclusive [inhibitor, single point]"}
{"compound": "COc1ccc(/C=C(\\NC(=O)c2ccc(C)cc2)C(=O)NCCCn2ccnc2)cc1", "activity change, negative = inhibition": "inactive: 8.53%"}
{"compound": "O=C1CC(Sc2nnnn2C2CCCCC2)C(=O)N1c1ccccc1", "note": "(centres undefined)", "activity change, negative = inhibition": "inactive: 16.3%"}
{"compound": "Nc1cccc2c1C(=O)N(C(=O)/C=C/c1cccc(Br)c1)C2=O", "activity change, negative = inhibition": "inactive: -2.74%"}
{"compound": "COc1cc(C(=O)NCCCc2nc3ccccc3n2Cc2cc(C)ccc2C)cc(OC)c1OC", "Potency": "inconclusive [inhibitor, single point]"}
{"compound": "Cc1ccccc1CN1CCN(CC(=O)NC(C)c2ccccc2)CC1", "note": "(centres undefined)", "Potency": "inconclusive [inhibitor, partial curve, poor fit]"}
{"compound": "Fc1ccccc1CCNc1nnnn1-c1ccccc1", "Potency": "inconclusive [inhibitor, single point]"}
{"compound": "CCOc1ccccc1CNC(=O)c1ccc2c(c1)N(Cc1ccc(C)cc1)CCS2", "Potency": "inconclusive [inhibitor, partial curve, poor fit]"}
{"compound": "CN(C)S(=O)(=O)c1cc(NC(=O)CN2CCN(c3ccccc3)CC2)ccc1Cl", "Potency": "inconclusive [inhibitor, partial curve, poor fit]"}
{"compound": "O=C(ONc1ccc(N=NC(=O)c2ccccc2O)cc1)c1ccccc1", "Potency": "inconclusive [inhibitor, full curve, poor fit]"}
{"compound": "Cc1ccsc1C1NC(=O)c2ccccc2N1", "note": "(centres undefined)", "activity change, negative = inhibition": "inactive: 2.87%"}
{"compound": "COc1cccc(/C=N/NC(=O)CNC(=O)C2COc3ccccc3O2)c1O", "note": "(centres undefined)", "Potency": "inconclusive [inhibitor, full curve, poor fit]"}
{"compound": "Cc1cnc(C)c(Nc2nc(C(N)Cc3ccc(Cl)cc3)cs2)n1", "note": "(centres undefined)", "Potency": "inconclusive [inhibitor, single point]"}
{"compound": "COc1ccc(OC)c(NC(=O)CSc2ccc3ccccc3c2)c1", "Potency": "inconclusive [inhibitor, single point]"}
{"compound": "CCOc1ccc(-c2nc(N)ncc2-c2ccccc2)c(O)c1", "Potency": "inconclusive [inhibitor, single point]"}
{"compound": "O=C(NCc1cccs1)c1ccc2c(c1)N(Cc1cccc(F)c1)C(=O)c1ccccc1S2", "Potency": "inconclusive [inhibitor, single point]"}
{"compound": "CCOC(=O)c1noc2nc(C)n(CC(=O)NC(C)CC)c(=O)c12", "note": "(centres undefined)", "activity change, negative = inhibition": "inactive: 8.52%"}
{"compound": "O=C(CCc1nnc(CCCCc2ccccc2)o1)NC(c1cccnc1)C(F)(F)F", "note": "(centres undefined)", "Potency": "inconclusive [inhibitor, partial curve]"}
{"compound": "CCOc1ccc(NC(=O)CN(C)C(=O)CCC2CCCCC2)cc1OCC", "Potency": "inconclusive [inhibitor, full curve]"}
{"compound": "COc1cccc(C(=O)CC(=O)C(=O)Nc2ccc(C)cc2Cl)c1", "Potency": "inconclusive [inhibitor, single point]"}
{"compound": "O=C(COc1ccc(Cl)cc1)N1CCN(C(=O)c2cccs2)CC1", "activity change, negative = inhibition": "inactive: 7.34% [at 0.307 µM]"}
{"compound": "CC(C)(C)NC(=O)C(c1ccc(-c2ccccc2)cc1)N(C[C@H]1CC[C@@H]([C@@H]2CC[C@H](CO)O2)O1)C(=O)c1ccc(C(C)(C)C)cc1", "note": "(some centres undefined)", "Potency": "inconclusive [inhibitor, single point]"}
{"compound": "COC(=O)c1c(NC(=O)Cc2coc3cc(C)ccc23)sc2c1CCC2", "activity change, negative = inhibition": "inactive: 15.6%"}
{"compound": "Cc1ccc(Cl)c(OCCN2CCc3ccccc3C2)c1", "Potency": "inconclusive [inhibitor, partial curve, poor fit]"}
{"compound": "O=C(Oc1cccc(OC(=O)N2CCCCC2)c1)N1CCCCC1", "Potency": "inconclusive [inhibitor, single point]"}
{"compound": "Oc1ccc(-c2csc(-c3c[nH]c4ccccc34)n2)c(O)c1", "activity change, negative = inhibition": "inactive: -8.6%"}
{"compound": "COc1ccccc1CN1CCN(S(=O)(=O)c2ccc(C)cc2)CC1", "Potency": "inconclusive [inhibitor, single point]"}
{"compound": "COc1ccc(CN2CCc3ccccc3C2)cc1Br", "Potency": "inconclusive [inhibitor, partial curve, poor fit]"}
{"compound": "Cc1ccc(Cn2cc(S(=O)(=O)c3cccc(Cl)c3)c(=O)c3cc(F)c(N4CCCCC4)cc32)cc1", "activity change, negative = inhibition": "inactive: 4.85%"}
{"compound": "Cc1nc2ccccc2nc(=O)c1NNc1ccccc1", "Potency": "inconclusive [inhibitor, single point]"}
{"compound": "Oc1ccc2ccccc2c1N=Nc1ccccn1", "Potency": "inconclusive [inhibitor, full curve, poor fit]"}
{"compound": "CCCSc1nnc(CNC(=O)C23CC4CC(CC(C4)C2)C3)n1Cc1ccccc1", "Potency": "inconclusive [inhibitor, full curve, poor fit]"}
